Out of some 45,000 compounds screened, about 65 (0.1%) were called active. The call rests on the fitted dose curve; in most records, active means well fitted activation curve with a large enough effect; inconclusive means small, poorly fitted or top-dose-only effect; inactive means no such curve, though single readings can be large or run the other way. This is one part of the list.
molecular target: Galactocerebrosidase (Homo sapiens) (UniProt P54803); assay: A Novel Cell-Based Assay to Identify Small Molecules for B -Galactocerebrosidase; conditions: 145M-Twi-hGALC-G270D cells (Twitcher mouse brain line with human GALC G270D), HMU-beta-Gal fluorescence, 48 h; series mostly up to 57.5 µM; activation: at the top concentration; further: 0% is about no effect; nearly all actives have a fitted effect of over 65% in size
Summary of the method: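 Live 145M-Twi cells (Twitcher mouse brain-derived, GALC-null) stably expressing human GALC-G270D, with a wild-type GALC line, were compound-treated. Residual GALC activity was then read as fluorescence from 0.1 mM final HMU-β-gal at pH 5.2; higher signal means activation.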

Sequence of UniProt P54803 (P54803 whole entry, looked up): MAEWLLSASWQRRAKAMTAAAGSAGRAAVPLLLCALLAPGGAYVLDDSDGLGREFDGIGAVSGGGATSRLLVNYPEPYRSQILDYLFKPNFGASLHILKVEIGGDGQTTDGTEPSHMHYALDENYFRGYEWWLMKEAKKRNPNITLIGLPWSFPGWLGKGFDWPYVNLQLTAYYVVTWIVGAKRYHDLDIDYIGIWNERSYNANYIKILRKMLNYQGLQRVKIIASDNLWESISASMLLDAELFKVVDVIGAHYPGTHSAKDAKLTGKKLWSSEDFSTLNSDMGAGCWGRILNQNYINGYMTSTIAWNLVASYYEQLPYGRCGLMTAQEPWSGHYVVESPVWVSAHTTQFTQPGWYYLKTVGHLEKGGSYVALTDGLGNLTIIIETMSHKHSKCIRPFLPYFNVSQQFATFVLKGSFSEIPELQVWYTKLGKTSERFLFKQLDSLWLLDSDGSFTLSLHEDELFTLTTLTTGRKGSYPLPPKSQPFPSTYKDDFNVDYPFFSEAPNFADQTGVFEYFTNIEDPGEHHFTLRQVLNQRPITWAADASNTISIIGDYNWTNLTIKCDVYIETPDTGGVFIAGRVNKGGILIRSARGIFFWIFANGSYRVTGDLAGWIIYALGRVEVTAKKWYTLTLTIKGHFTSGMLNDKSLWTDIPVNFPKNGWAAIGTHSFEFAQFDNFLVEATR

activation, inactive:
COc1cccc(N2CC(NC(=O)C(c3ccccc3)c3ccccc3)CC2=O)c1 (stereo not drawn) -17.2%, Cc1cc(C)cc(Oc2nc3c(C)cccn3c(=O)c2/C=C(\C#N)c2nc3ccccc3[nH]2)c1 -12.5%, Cc1ccc(NC(=O)CC(C)S(=O)(=O)c2ccc3c(c2)NC(=O)CO3)c(C)c1 (stereo not drawn) -10.3%, COc1cc(-c2ccno2)ccc1S(=O)(=O)N1CCN(c2cc(C)ccc2C)CC1 -21.6%, COCC(=O)Oc1c(Sc2ccc(C)cc2)c(C)nn1C(C)(C)C -24.7%, CCO[C@H](Cc1ccc(OCCc2ccc(OS(C)(=O)=O)cc2)cc1)C(=O)O -11.4%, COc1ccccc1/C=C/c1nc(C#N)c(N2CCCCC2)o1 4.53%, Cc1nc2nncn2c(N2CCN(c3ccccc3)CC2)c1C -10.8%, Cc1ccc2nc(-c3ccsc3)c(Nc3ccccc3C)n2c1 -14.1%, c1cnc2cc3c(cc2n1)C1CNCC3C1 -9.64%, Cn1cc(CN(C(=O)Nc2ccc(Cl)c(Cl)c2)C2CCCCC2)c2ccccc21 -22.5%, Cc1ccccc1Cn1c(C(=O)O)c(CNCc2cccc(F)c2)c2ccccc21 -13.1%, COC(=O)c1scc(-c2ccccc2)c1S(=O)(=O)Nc1ccccc1 -8.06%, COc1ccc(-n2c(/C=C/c3ccccc3F)nc3cc(OC)c(OC)cc3c2=O)cc1Cl -10.7%, COCCNC(=O)c1cnn(-c2ccc(C)cc2C)c1C1CCN(C(=O)OC(C)(C)C)CC1 19.1%, Cc1ccc(N2CC(NC(=O)/C=C\c3ccc4c(c3)OCO4)CC2=O)cc1C (stereo not drawn) -22.5%, O=C1c2ccccc2C(=O)C1(c1ccccc1)N1CCN(c2cccc(Cl)c2)CC1 -12.8%, Cc1ccc(NC(=O)CSc2ncc3c(n2)-c2ccccc2N(Cc2cccc(F)c2)S3(=O)=O)cc1F -8.69%, CCN(CC)C(=O)C1CCN(S(=O)(=O)c2ccc3c(c2)CCCN3C(C)=O)CC1 -18.4%, Cc1ccc(-c2cc(C(F)(F)F)n3nc(C(=O)Nc4ccc(Cl)cc4Cl)cc3n2)cc1 -8.5%, O=C(NCc1ccc(F)cc1)c1ccc(CSCc2cccc(Cl)c2)o1 -6.07%, COCCNC(=O)Cc1ccc(NC(=O)N2CCCCc3ccccc32)cc1 -9.15%, CCOc1cc(-c2ccc(OC(=O)c3ccccc3F)cc2)cc(=O)c2c(C)oc(C)c12 -8.04%, O=C(CSc1nccn1Cc1ccccc1)NCc1ccc(F)cc1 -16.1%, CCN(Cc1ccccc1)C(=O)c1c(C)oc2ncn(C)c(=O)c12 5.23%, CCOc1ccc(C(=O)Nc2cc(-c3nc4ccccc4o3)ccc2C)cc1Cl -9.81%, Cc1cc(C)nc(NS(=O)(=O)c2ccc(NC(=O)COc3ccc(Cl)cc3C)cc2)n1 -10.8%, CC1CN(C(=O)Nc2ccc(C(=O)NCCc3ccccc3)cc2)c2ccccc2S1 (stereo not drawn) -7.46%, COc1ccc(-n2ccnc(NCc3ccc(Cl)cc3)c2=O)cc1 -13.5%, COc1ccc(NC(=O)CCc2nnc3n(C)c(=O)c4sccc4n23)cc1 -12.7%, Clc1cccc(N2CCN(c3nc4ccccc4n4cnnc34)CC2)c1 -11.6%, COc1ccc(-n2nc3ccc(NC(=O)c4ccc(-c5cc(Cl)ccc5Cl)o4)cc3n2)cc1 -11.2%, O=C(CCCCCCC(=O)Nc1ccccc1)NO -10%, Cc1c(Cl)cccc1-c1ccc(CNc2ccc3[nH]c(=O)[nH]c3c2)o1 -11.8%, Cc1ccc(CCNC(=O)c2cc3sccc3n2Cc2ccc(C)cc2)cc1 -18.4%, CCCc1cnc2c(c1SCC(=O)N(C)c1ccccc1)c(=O)n(C)c(=O)n2C -1.95%, Cc1c(Cl)ccc2sc(NC(=O)c3ccc(S(=O)(=O)N4CCCc5ccccc54)cc3)nc12 8.62%, COc1cccc(NC(=O)C2CCCN(S(=O)(=O)c3c(C)[nH]c(=O)[nH]c3=O)C2)c1 (stereo not drawn) 11.9%, Cc1cc(C)cc(NC(=O)CCC(=O)N2Cc3ccccc3Oc3ncccc32)c1 -1.61%, CCN(c1cc(C)cc(C)c1)S(=O)(=O)c1nnc(NC(=O)C2CCCCC2)s1 -6.27%, O=C(Nc1ccc(Br)c2cccnc12)c1cccc2ccccc12 0.71%, CCOc1ccc(NC(=O)Cn2c(=O)n(Cc3ccco3)c(=O)c3oc4ccccc4c32)cc1 -18.4%, COc1ccc(NC(=O)c2oc3ccccc3c2NC(=O)c2cccc(F)c2)c(OC)c1 -4.83%, COc1cc2ccccc2cc1C(=O)Nc1ccc2oc(-c3ccc(F)cc3)nc2c1 -6.77%, CCc1ccccc1NC(=O)c1nnn(-c2ccc(F)cc2)c1C -3.51%, Cc1cc(C)cc(-n2c(SCC(=O)N3CCCCC3)nc3c([nH]c4ccccc43)c2=O)c1 -8.18%, CC1CCN(S(=O)(=O)c2ccc3c(c2)oc(=O)n3CC(=O)NCc2ccc(F)cc2)CC1 -21.4%, CCOC(=O)c1ccccc1NC(=O)CSc1cn(CC(=O)N2CCCCC2)c2ccccc12 -6.79%

Source: PubChem BioAssay AID1159614 (National Center for Advancing Translational Sciences (NCATS), 2016)
